In PMC9911399, “Two distinct binding modes provide the RNA-binding protein RbFox with extraordinary sequence specificity”:
Numbering of substitutions follows the chain as printed; changes in the protein carry UniProt numbers. This is one part of the list.

B1: UGCAGAA (DNA:RNA)
RNA: GGGAGACCGGAAUUCAGAUUGUCCUGCAGAAUUAAAUCCCGUCGUAGCCACCA
DNA 1: CAATCTGAATTCCGGTCTCCC
DNA 2: TGGTGGCTACGACGGGATT
B2: AGAGAGA (DNA:RNA)
RNA: B1 RNA with U25A, C27A, A28G, G29A, A30G
DNA 1: CAATCTGAATTCCGGTCTCCC
DNA 2: TGGTGGCTACGACGGGATT
B3: GCUCCUA (DNA:RNA)
RNA: B1 RNA with U25G, G26C, C27U, A28C, G29C, A30U
DNA 1: CAATCTGAATTCCGGTCTCCC
DNA 2: TGGTGGCTACGACGGGATT
B4: AAUCCCG (DNA:RNA)
RNA: GGGAGACCGGAAUUCAGAUUGUCCAAUCCCGUUAAAUCCCGUCGUAGCCACCA
DNA 1: CAATCTGAATTCCGGTCTCCC
DNA 2: TGGTGGCTACGACGGGATT
B5: ACUCUAC (DNA:RNA)
RNA: B4 RNA with A26C, C29U, C30A, G31C
DNA 1: CAATCTGAATTCCGGTCTCCC
DNA 2: TGGTGGCTACGACGGGATT
B6: GAUGAGG (DNA:RNA)
RNA: B4 RNA with A25G, C28G, C29A, C30G
DNA 1: CAATCTGAATTCCGGTCTCCC
DNA 2: TGGTGGCTACGACGGGATT
B7: GUCGGCA (DNA:RNA)
RNA: B1 RNA with U25G, G26U, A28G, A30C
DNA 1: CAATCTGAATTCCGGTCTCCC
DNA 2: TGGTGGCTACGACGGGATT
B8: AACUCGA (DNA:RNA)
RNA: B4 RNA with U27C, C28U, C30G, G31A
DNA 1: CAATCTGAATTCCGGTCTCCC
DNA 2: TGGTGGCTACGACGGGATT
B9: UGGAAUA (DNA:RNA)
RNA: B1 RNA with C27G, G29A, A30U
DNA 1: CAATCTGAATTCCGGTCTCCC
DNA 2: TGGTGGCTACGACGGGATT
B10: UAAGACC (DNA:RNA)
RNA: B4 RNA with A25U, U27A, C28G, C29A, G31C
DNA 1: CAATCTGAATTCCGGTCTCCC
DNA 2: TGGTGGCTACGACGGGATT
B11: UAAAUUA (DNA:RNA)
RNA: B1 RNA with G26A, C27A, G29U, A30U
DNA 1: CAATCTGAATTCCGGTCTCCC
DNA 2: TGGTGGCTACGACGGGATT
B12: AUCACCU (DNA:RNA)
RNA: B4 RNA with A26U, U27C, C28A, G31U
DNA 1: CAATCTGAATTCCGGTCTCCC
DNA 2: TGGTGGCTACGACGGGATT
B13: UCACUGU (DNA:RNA)
RNA: B4 RNA with A25U, A26C, U27A, C29U, C30G, G31U
DNA 1: CAATCTGAATTCCGGTCTCCC
DNA 2: TGGTGGCTACGACGGGATT
B14: CCGCGUG (DNA:RNA)
RNA: B4 RNA with A25C, A26C, U27G, C29G, C30U
DNA 1: CAATCTGAATTCCGGTCTCCC
DNA 2: TGGTGGCTACGACGGGATT
B15: AUGGUCA (DNA:RNA)
RNA: B4 RNA with A26U, U27G, C28G, C29U, G31A
DNA 1: CAATCTGAATTCCGGTCTCCC
DNA 2: TGGTGGCTACGACGGGATT
B16: AUAUCGC (DNA:RNA)
RNA: B4 RNA with A26U, U27A, C28U, C30G, G31C
DNA 1: CAATCTGAATTCCGGTCTCCC
DNA 2: TGGTGGCTACGACGGGATT
B17: GCCCGUC (DNA:RNA)
RNA: B1 RNA with U25G, G26C, A28C, A30U, A31C
DNA 1: CAATCTGAATTCCGGTCTCCC
DNA 2: TGGTGGCTACGACGGGATT
B18: AUGCCAC (DNA:RNA)
RNA: B4 RNA with A26U, U27G, C30A, G31C
DNA 1: CAATCTGAATTCCGGTCTCCC
DNA 2: TGGTGGCTACGACGGGATT
B19: AGUUUUG (DNA:RNA)
RNA: B4 RNA with A26G, C28U, C29U, C30U
DNA 1: CAATCTGAATTCCGGTCTCCC
DNA 2: TGGTGGCTACGACGGGATT
B20: AAGUGUU (DNA:RNA)
RNA: B4 RNA with U27G, C28U, C29G, C30U, G31U
DNA 1: CAATCTGAATTCCGGTCTCCC
DNA 2: TGGTGGCTACGACGGGATT
B21: CGUUGGC (DNA:RNA)
RNA: B1 RNA with U25C, C27U, A28U, A30G, A31C
DNA 1: CAATCTGAATTCCGGTCTCCC
DNA 2: TGGTGGCTACGACGGGATT
B22: CAGACAG (DNA:RNA)
RNA: B4 RNA with A25C, U27G, C28A, C30A
DNA 1: CAATCTGAATTCCGGTCTCCC
DNA 2: TGGTGGCTACGACGGGATT
B23: UUUAAUC (DNA:RNA)
RNA: B1 RNA with G26U, C27U, G29A, A30U, A31C
DNA 1: CAATCTGAATTCCGGTCTCCC
DNA 2: TGGTGGCTACGACGGGATT
B24: CGGGUCU (DNA:RNA)
RNA: B4 RNA with A25C, A26G, U27G, C28G, C29U, G31U
DNA 1: CAATCTGAATTCCGGTCTCCC
DNA 2: TGGTGGCTACGACGGGATT
B25: GGAUAUA (DNA:RNA)
RNA: B1 RNA with U25G, C27A, A28U, G29A, A30U
DNA 1: CAATCTGAATTCCGGTCTCCC
DNA 2: TGGTGGCTACGACGGGATT
B26: CGGAAGA (DNA:RNA)
RNA: B1 RNA with U25C, C27G, G29A, A30G
DNA 1: CAATCTGAATTCCGGTCTCCC
DNA 2: TGGTGGCTACGACGGGATT
B27: AGUUUUA (DNA:RNA)
RNA: B4 RNA with A26G, C28U, C29U, C30U, G31A
DNA 1: CAATCTGAATTCCGGTCTCCC
DNA 2: TGGTGGCTACGACGGGATT
B28: UCUUAGU (DNA:RNA)
RNA: B4 RNA with A25U, A26C, C28U, C29A, C30G, G31U
DNA 1: CAATCTGAATTCCGGTCTCCC
DNA 2: TGGTGGCTACGACGGGATT
B29: GGCAUUA (DNA:RNA)
RNA: B1 RNA with U25G, G29U, A30U
DNA 1: CAATCTGAATTCCGGTCTCCC
DNA 2: TGGTGGCTACGACGGGATT
B30: UCCCGAG (DNA:RNA)
RNA: B1 RNA with G26C, A28C, A31G
DNA 1: CAATCTGAATTCCGGTCTCCC
DNA 2: TGGTGGCTACGACGGGATT
B31: AAUGUGA (DNA:RNA)
RNA: B4 RNA with C28G, C29U, C30G, G31A
DNA 1: CAATCTGAATTCCGGTCTCCC
DNA 2: TGGTGGCTACGACGGGATT

Target: T1, RBFOX1 RRM RbFoxmut (Fox-RRM*) (Homo sapiens, UniProt Q9NWB1 109-208, R118D;E147R;N151S;E152T)
T1 sequence: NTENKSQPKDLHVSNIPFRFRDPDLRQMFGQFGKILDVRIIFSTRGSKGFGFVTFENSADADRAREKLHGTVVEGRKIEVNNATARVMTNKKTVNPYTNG
Assay: EMSA; HiTS-Eq, 1 nM pool, 10 min; buffer printed only for the single-RNA assays: 10 mM Tris pH 7.5, 150 mM NaCl, 3.4 mM EDTA, 0.001% NP-40, 30 C
Details: tags: His6 N-terminal (pET28a); label: 5' 32P
In short: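 These values rest on relative association constants, computed from read-count changes of each RNA species versus the control reaction and normalised to the cognate motif. Reads came from free RNA recovered by 8% native PAGE after purified RbFox RRM (wild type or mutant) at increasing concentrations was equilibrated for 10 min in 50 µL with 1 nM of a 5′-radiolabelled pool with 7 randomized nucleotides and DNA-annealed flanks.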

Row | Binder | binding signal
1 | B1 | 0.112 KA relative to UGCAUGU
2 | B2 | 0.111 KA relative to UGCAUGU
3 | B3 | 0.0568 KA relative to UGCAUGU
4 | B4 | 0.0642 KA relative to UGCAUGU
5 | B5 | 0.0757 KA relative to UGCAUGU
6 | B6 | 0.0814 KA relative to UGCAUGU
7 | B7 | 0.13 KA relative to UGCAUGU
8 | B8 | 0.0909 KA relative to UGCAUGU
9 | B9 | 0.243 KA relative to UGCAUGU
10 | B10 | 0.0707 KA relative to UGCAUGU
11 | B11 | 0.0827 KA relative to UGCAUGU
12 | B12 | 0.088 KA relative to UGCAUGU
13 | B13 | 0.0994 KA relative to UGCAUGU
14 | B14 | 0.107 KA relative to UGCAUGU
15 | B15 | 0.126 KA relative to UGCAUGU
16 | B16 | 0.0788 KA relative to UGCAUGU

Row | Binder | binding signal
17 | B17 | 0.0748 KA relative to UGCAUGU
18 | B18 | 0.11 KA relative to UGCAUGU
19 | B19 | 0.137 KA relative to UGCAUGU
20 | B20 | 0.117 KA relative to UGCAUGU
21 | B21 | 0.124 KA relative to UGCAUGU
22 | B22 | 0.0536 KA relative to UGCAUGU
23 | B23 | 0.0571 KA relative to UGCAUGU
24 | B24 | 0.0984 KA relative to UGCAUGU
25 | B25 | 0.113 KA relative to UGCAUGU
26 | B26 | 0.0866 KA relative to UGCAUGU
27 | B27 | 0.101 KA relative to UGCAUGU
28 | B28 | 0.138 KA relative to UGCAUGU
29 | B29 | 0.121 KA relative to UGCAUGU
30 | B30 | 0.135 KA relative to UGCAUGU
31 | B31 | 0.0495 KA relative to UGCAUGU
